The supplement of paper PMC10126150
Values marked as one replicate rest on one cluster of the flow cell; about a third of the high ones do not repeat.

system: ATP; test: switch fluorescence ratio, 500 uM ATP over buffer (Cy3 cluster intensity, sum of 5 cycles each) (fold (ratio)); higher = stronger signal-on switching upon ATP binding; sequences stand for … in TCGTCGGCAGCGTCAGATGTGTATAAGAGACAGTTTTTTTTTTTTTTTTTTTTTTTTT…TC; details: aptamer strand: ATP DNA aptamer (quencher-CACCTGGGGGAGTATTGCGGAGGAAGG + anchor), 100 nM annealed; ATP concentration: 500 uM; one replicate
Outline: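 For every switch-domain sequence, the fluorescence ratio is the mean of per-cluster values, each being summed target-cycle Cy3 intensity over summed buffer-cycle Cy3 intensity. Clusters outside 100-1000 RFU were excluded. On a modified Illumina MiSeq flow-cell, the Cy3-labelled switching-strand clusters were annealed to 100 nM quencher-labelled ATP aptamer, imaged in selection buffer and then after 15 min with 500 uM ATP at 22 °C. Five such cycles were run, with NaOH stripping and re-annealing between them.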
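Further: ATP exposure 15 min at 22 °C before imaging.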

Row | Sequence | switch fluorescence ratio
1 | TTGCGATGGC | 1.01
2 | TTGCGGTACT | 2.86
3 | TTGCGGTATC | 1.02
4 | TTGCGTTGTA | 1.07
5 | TTGCGTTTGC | 0.971
6 | TTGCTATACA | 1.02
7 | TTGCTATCGT | 0.979
8 | TTGCTCAAGT | 1.03
9 | TTGCTCGTTT | 1.07
10 | TTGCTCTAGA | 0.963
11 | TTGCTGAGAT | 0.998
12 | TTGCTGCG | 0.953
13 | TTGCTGGGA | 0.979
14 | TTGCTGGGGC | 1
15 | TTGCTGGTCC | 1.02
16 | TTGCTTATGA | 0.954
17 | TTGCTTTAAG | 0.983
18 | TTGGAACGGA | 1.11
19 | TTGGAACTGA | 1.02
20 | TTGGAGTGGA | 1.01
21 | TTGGATCCC | 0.979
22 | TTGGCACTTA | 1.02
23 | TTGGCCAACC | 1.02
24 | TTGGCCTAAG | 1.01
25 | TTGGCGGTTT | 1.01
26 | TTGGCGTTAT | 1.01

Row | Sequence | switch fluorescence ratio
27 | TTGGCTATAT | 0.976
28 | TTGGCTCTG | 0.971
29 | TTGGGAACAG | 0.988
30 | TTGGGAATCT | 1
31 | TTGGGAGCGA | 1.2
32 | TTGGGATCTG | 0.998
33 | TTGGGCAATT | 0.993
34 | TTGGGGAATC | 0.933
35 | TTGGGGACGC | 1.07
36 | TTGGGGGCG | 1.01
37 | TTGGGTCTAA | 1.03
38 | TTGGTAACTC | 0.986
39 | TTGGTATGGA | 0.993
40 | TTGGTCGT | 0.923
41 | TTGGTCGTTG | 1.04
42 | TTGGTGCAAC | 1.01
43 | TTGGTGCCGA | 0.975
44 | TTGGTGGG | 0.992
45 | TTGGTGTTT | 1.02
46 | TTGGTTCGGT | 1.02
47 | TTGGTTCTTT | 0.978
48 | TTGGTTTCAC | 0.993
49 | TTGTAAAGGG | 0.955
50 | TTGTAACACT | 0.989
51 | TTGTAATTAT | 0.96
52 | TTGTACGTGA | 1.49

Row | Sequence | switch fluorescence ratio
53 | TTGTACTAA | 0.98
54 | TTGTAGATAC | 1.08
55 | TTGTAGCAGA | 1.36
56 | TTGTAGCCAG | 1.04
57 | TTGTATACTA | 0.99
58 | TTGTATGACA | 1.01
59 | TTGTCAGACG | 0.926
60 | TTGTCAGCGC | 1
61 | TTGTCCCGGC | 0.976
62 | TTGTCCCTTG | 1.01
63 | TTGTCGATAT | 1.14
64 | TTGTCGGATC | 0.966
65 | TTGTCTAAGC | 1.04
66 | TTGTCTGACT | 1.04
67 | TTGTGAAACG | 0.995
68 | TTGTGATCAC | 1.01
69 | TTGTGCCGCG | 0.998
70 | TTGTGCGTCC | 1.05
71 | TTGTGGCGCA | 0.971
72 | TTGTGTACGA | 1.03
73 | TTGTGTTATA | 0.997
74 | TTGTTAAAGG | 1.03
75 | TTGTTACG | 0.981
76 | TTGTTATTGA | 0.979
77 | TTGTTCAATT | 1.02
78 | TTGTTGAAA | 0.958

Row | Sequence | switch fluorescence ratio
79 | TTGTTGAGGT | 1.04
80 | TTGTTGTCGT | 0.995
81 | TTTAAACGCG | 0.964
82 | TTTAAAGTGC | 1.09
83 | TTTAAATCCC | 1.03
84 | TTTAAGCCAA | 1.01
85 | TTTAAGCGTA | 0.966
86 | TTTAAGCGTC | 1.08
87 | TTTAAGGACC | 1.04
88 | TTTAAGGTCA | 0.991
89 | TTTAATAACG | 0.996
90 | TTTAATCGCG | 0.934
91 | TTTACAATGA | 1.08
92 | TTTACACGGC | 1.04
93 | TTTACACT | 1.04
94 | TTTACCAAGT | 1.06
95 | TTTACCAGCT | 1.06
96 | TTTACCGGGC | 1.07
97 | TTTACCGTTT | 1.09
98 | TTTACCTTGG | 0.983
99 | TTTACGATGA | 1.02
100 | TTTACGCGCC | 1.1
101 | TTTACGGAA | 1.06
102 | TTTACGTTTA | 1.03
103 | TTTACTCACT | 1.18
104 | TTTACTCATT | 0.989

Row | Sequence | switch fluorescence ratio
105 | TTTAGAAACG | 0.958
106 | TTTAGATGT | 1.04
107 | TTTAGATTG | 0.954
108 | TTTAGCCAGG | 1.11
109 | TTTAGCCCCT | 1.1
110 | TTTAGCGCAA | 1.72
111 | TTTAGGAAAT | 1.07
112 | TTTAGGCTAT | 1.03
113 | TTTAGGCTC | 1.04
114 | TTTAGGGCAT | 1.05
115 | TTTAGGTTC | 0.97
116 | TTTAGTACT | 0.946
117 | TTTAGTCCAG | 0.998
118 | TTTAGTCCGT | 0.947
119 | TTTAGTGCAA | 1
120 | TTTAGTTTAT | 1.71
121 | TTTATAACG | 0.985
122 | TTTATAATAA | 1.02
123 | TTTATAGGAT | 0.977
124 | TTTATAGTG | 1.03
125 | TTTATCAGCA | 0.963
126 | TTTATCTGGG | 0.982
127 | TTTATGACAC | 0.97
128 | TTTATGCAAC | 1.03
129 | TTTATTTCGG | 0.995
130 | TTTCAAAATC | 1.05

Row | Sequence | switch fluorescence ratio
131 | TTTCAAATAT | 0.989
132 | TTTCAAGGAG | 1.06
133 | TTTCAATACG | 2.4
134 | TTTCACAGTT | 0.985
135 | TTTCAGAGCG | 0.999
136 | TTTCAGATTT | 1
137 | TTTCAGGCCC | 1.01
138 | TTTCAGTGAA | 1.01
139 | TTTCCAAAGT | 0.985
140 | TTTCCCCGTG | 1.22
141 | TTTCCGCCTT | 1.2
142 | TTTCCGGT | 1.02
143 | TTTCCGTCCT | 1.07
144 | TTTCGACTGC | 1.02
145 | TTTCGCCGGT | 1.02
146 | TTTCGGTACC | 0.973
147 | TTTCGTCCA | 1.3
148 | TTTCTAACC | 0.999
149 | TTTCTATTTA | 1.03
150 | TTTCTCCATG | 1
151 | TTTCTCGCC | 1.62
152 | TTTCTCGCCA | 1.06
153 | TTTCTCGGGC | 1.07
154 | TTTCTCGTAT | 0.987
155 | TTTCTCGTGA | 1.39
156 | TTTCTGTAAC | 1.01

Row | Sequence | switch fluorescence ratio
157 | TTTCTTCTG | 1.08
158 | TTTCTTGAG | 0.951
159 | TTTCTTTCCT | 1.04
160 | TTTCTTTGGA | 1.01
161 | TTTGAACGAA | 1.01
162 | TTTGAACGAT | 0.942
163 | TTTGAACTCT | 1.02
164 | TTTGACACGG | 1.02
165 | TTTGAGAGAG | 0.974
166 | TTTGAGCCCA | 0.997
167 | TTTGAGCCGT | 0.962
168 | TTTGAGCTCA | 1.06
169 | TTTGATAGTG | 0.996
170 | TTTGATCCAA | 1.03
171 | TTTGCACTCA | 1.09
172 | TTTGCATTGA | 1.02
173 | TTTGCATTTC | 1.1
174 | TTTGCCCCGC | 1.03
175 | TTTGCCTCAG | 1.16
176 | TTTGCCTCTA | 1.03
177 | TTTGCGCCG | 0.968
178 | TTTGCGTCAG | 0.995
179 | TTTGGAACGC | 1.1
180 | TTTGGACAA | 1.06
181 | TTTGGAGACC | 1.05
182 | TTTGGATCAA | 0.995

Row | Sequence | switch fluorescence ratio
183 | TTTGGCGGAC | 1.01
184 | TTTGGCGGTG | 1.05
185 | TTTGGCTGGT | 1.08
186 | TTTGGGACCG | 1.03
187 | TTTGGGATAA | 1.43
188 | TTTGGGCACA | 1.34
189 | TTTGGGCGAT | 1.03
190 | TTTGGGCTCT | 1.07
191 | TTTGGGTACA | 0.996
192 | TTTGGTCAGC | 1.02
193 | TTTGGTCGT | 0.976
194 | TTTGGTGCAA | 1.12
195 | TTTGTATTAT | 1.81
196 | TTTGTCAACG | 1.02
197 | TTTGTCACAT | 1.03
198 | TTTGTCAGCC | 0.994
199 | TTTGTGAGC | 1.04
200 | TTTGTGTTT | 0.996
201 | TTTGTTATAA | 1.01
